Values joined by “and” are separate entries in the source; they are usually repeats but may differ in a detail not shown here. Identical values can stand only once. About 20 (0.008%) of roughly 240,000 compounds were called active. The inconclusive results got no clear call from the source; some entries with a clear call stand among them for comparison. Calls come from the whole dose curve; as a rule, active = well fitted inhibition curve with a large enough effect; inconclusive = small, poorly fitted or top-dose-only effect, or effect the other way; inactive = flat fitted curve, though single readings scatter. Potencies of inconclusive entries are doubtful fits and often do not repeat.
Biological target: Alpha-galactosidase A (Homo sapiens) (UniProt P06280)
Chain of UniProt P06280 (P06280 whole entry, looked up): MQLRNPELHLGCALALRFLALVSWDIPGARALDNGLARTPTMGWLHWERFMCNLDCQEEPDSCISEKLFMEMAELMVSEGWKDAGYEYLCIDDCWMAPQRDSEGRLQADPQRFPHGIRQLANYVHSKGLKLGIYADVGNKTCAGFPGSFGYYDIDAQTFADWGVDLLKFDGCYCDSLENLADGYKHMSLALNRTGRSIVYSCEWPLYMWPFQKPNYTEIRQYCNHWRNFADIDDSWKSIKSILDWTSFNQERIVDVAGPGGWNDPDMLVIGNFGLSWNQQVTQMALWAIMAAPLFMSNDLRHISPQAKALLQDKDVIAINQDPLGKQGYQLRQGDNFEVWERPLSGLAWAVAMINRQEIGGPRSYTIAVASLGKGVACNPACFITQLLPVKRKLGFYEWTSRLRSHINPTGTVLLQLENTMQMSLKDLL
Assay: qHTS Assay for Inhibitors and Activators of Human alpha-Galactosidase From Spleen Homogenate;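 for activity change, negative = inhibition: 0% = enzyme with vehicle and -100% = no enzyme basal signal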
Details: 4MU-alpha-Gal fluorescence, 40 min; series mostly up to 80 µM; activity change, negative = inhibition: at the top concentration
Source text: NIH Chemical Genomics Center [NCGC] NIH Molecular Libraries Probe Production Centers Network [MLPCN] MLPCN Grant: R03 MH084842-01 Assay Submitter (PI): Wei Zheng NCGC Assay Overview: Alpha-galactosidase is a homodimeric glycoprotein that hydrolyzes the terminal alpha-galactosyl moieties from glycolipids and glycoproteins. Deficiency of this enzyme results in Fabry Disease with progressive accumulation of globotriaosylceramide and other glycosphingolipids in vascular endothelial cells that causes renal failure, myocardial infarction and stroke, and premature death in patients. It has been reported that the improper folding and trafficking of alpha-galactosidase resulting from genetic mutations may account for a significant number of Fabry patients. […] We optimized this alpha-galactosidase assay in 1536-well plate format for identification of novel small molecule inhibitors or activators with structures other than the sugar analogs in order to develop new pharmacological chaperones. In particular, this assay is directed towards discovering compounds active in more natural setting, tissue homogenate, that may have been missed by screens of the purified enzyme under more stringent conditions.
NCGC Assay Protocol Summary: This is a fluorogenic enzyme assay with 4-methylumbelliferyl-alpha-D-galactopyranoside as the substrate and human spleen homogenate containing alpha-galactosidase as the enzyme preparation. Upon hydrolysis of this fluorogenic substrate, the resulting product, 4-methylumbelliferone (which excites at 365 nm and emits at 440 nm) can be detected by a fluorescence plate reader. Data were normalized to the controls for basal activity (without enzyme) and 100% activity (with enzyme). The AC50 values were determined from concentration-response data modeled with the standard Hill equation. Assay buffer: 50 mM citric acid (titrated with potassium phosphate to pH 5.0), 0.01% Tween-20 (pH 5.0 is an optimal condition for this enzyme assay) 1536-well assay protocol for the alpha-galactosidase from human spleen homogenate: (1) Add 2 ul/well spleen homogenate (1 ug) (2) Add 23 nL compounds in DMSO solution. The final titration was 0.5 nM to 58 uM. (3) Add 2 ul of substrate (1 mM final) (4) Incubate at 37C for 40 min (5) Add 2 ul stop solution (1M NaOH and 1M Glycine mixture, pH 10) (6) Detect the assay plate in a ViewLux plate reader (PerkinElmer) with Ex=365 nm and Em=440nm. Keywords: Alpha-galactosidase, Fabry Disease, pharmacological chaperone, chaperone therapy, high throughput screening, alpha- galactosidase inhibitor, MLSMR, MLSCN, NIH Roadmap, qHTS and NCGC
Potency is the fitted concentration of half-maximal effect; tags give direction and shape of the fitted curve.

SMILES	activity change, negative = inhibition	Potency
COC(=O)C1C2c3ccccc3OC1(C)N=c1s/c(=C/c3cnn(C)c3)c(=O)n12 (stereo not given)	inactive: 2.78%	–
COc1cc(CCN)ccc1O	–	inconclusive: 5.01 µM [inhibitor, full curve]
CCOP(=O)(OCC)c1nc(-c2cccc3ccccc23)oc1NCCc1ccc(OC)cc1	–	inconclusive: 35.5 µM [activator, partial curve]
Cc1ccc[n+](CC(O)Cn2c3ccccc3c3ccccc32)c1 (stereo not given)	–	inconclusive: 50.1 µM [inhibitor, single point]
CN1Cc2c(c(C#N)c(N)n(C)c2=S)CC1(C)C	–	inconclusive: 35.5 µM [activator, partial curve]
Nc1c(C(=O)NCc2ccco2)c2nc3ccccc3nc2n1Cc1ccc(F)cc1	–	inconclusive: 35.5 µM [activator, partial curve]
CCCCn1c(N)c(C(=O)NCc2cccs2)c2nc3ccccc3nc21	–	inconclusive: 31.6 µM [activator, single point]
Cc1cc(N2CCOCC2)nc2ccc(NC(=O)CCC(=O)N3CCC4(CC3)OCCO4)cc12	–	inconclusive: 39.8 µM [activator, partial curve]
COCCOC(=O)c1c(N)n(Cc2ccc(OC)cc2)c2nc3ccccc3nc12	–	inconclusive: 35.5 µM [activator, partial curve]
CN=C(NC#N)NCCSCc1nc[nH]c1C	–	inconclusive: 22.4 µM [activator, partial curve, poor fit]
COc1ccc(/C=C2\C(=O)NC(=S)N(C)C2=O)cc1C	inactive: -14.6%	–
Cc1ccc(C(=O)C2CN(C)CC2C(=O)c2ccc(C)cc2)cc1 (stereo not given)	inactive: -2.77%	–
COCCCNC(=O)c1c(N)n(Cc2ccco2)c2nc3ccccc3nc12	–	inconclusive: 31.6 µM [activator, partial curve]
COCCNC(=O)c1c(N)n(Cc2ccco2)c2nc3ccccc3nc12	–	inconclusive: 28.2 µM [activator, single point]
OCCN1CCN(CCCN2c3ccccc3Sc3ccc(C(F)(F)F)cc32)CC1	–	inconclusive: 8.91 µM [inhibitor, partial curve]
C[C@@H]1C[C@H]2OC(=O)C3(CO3)[C@H]2[C@H](O)[C@]2(C)C(=O)C3OC3[C@@H]12 (stereo not given in full)	inactive: -9.4%	–
N#Cc1c(Cl)nc(Cl)c2c1CCN(Cc1ccccc1)C2	–	inconclusive: 28.2 µM [activator, partial curve]
FC(F)(F)c1ccc2c(c1)ncn2C1CCN(Cc2nnnn2C2CCCCC2)CC1	inactive: 10.5%	–
COc1ccc(-n2c(C)cc(C(=O)C[N+]34CCN(CC3)CC4)c2C)cc1	–	inconclusive: 39.8 µM [inhibitor, single point]
CC[C@@]1(O)C(=O)OCc2c1cc1n(c2=O)Cc2cc3c(NC(=O)CN)cccc3nc2-1	–	inconclusive: 50.1 µM [activator, partial curve, poor fit]
O=C1C2CCN(CC2)C1Cc1ccc(OCCOc2ccccc2)cc1 (stereo not given)	–	inconclusive: 31.6 µM [inhibitor, single point]
Nc1c(C(=O)OCc2ccccc2)c2nc3ccccc3nc2n1Cc1cccs1	–	inconclusive: 35.5 µM [activator, partial curve, poor fit]

SMILES	activity change, negative = inhibition	Potency
Oc1ccccc1	–	inconclusive: 10 µM [inhibitor, single point]
Cc1cc(N2CCCCC2)ccc1C=C1C(=O)N(C)C(=S)N(C)C1=O	inactive: 10.1%	–
CC(=O)N1CCC2(CC1)CC(=O)c1cc(OCC(=O)N3CCC4(CC3)OCCO4)ccc1O2	–	inconclusive: 31.6 µM [activator, single point]
CCCCCCn1c(O)c(C=NCCCn2ccnc2)c(=O)[nH]c1=O	–	inconclusive: 31.6 µM [inhibitor, single point]
CCCCCCN=C(C)c1c(O)n(Cc2ccccc2)c(=O)[nH]c1=O	inactive: 1.4%	–
CC[C@H](C)[C@H](NC(=O)CN)C(=O)N[C@@H](CC(C)C)C(=O)NCC(=O)N[C@@H](Cc1ccccc1)C(=O)N[C@H](C(=O)N[C@@H](Cc1ccccc1)C(=O)N[C@H](C(=O)N[C@@H](CC(C)C)C(=O)O)[C@@H](C)O)C(C)C	inactive: 0.203%	–
CCN1C[C@@]2(OC(=O)c3ccccc3NC(C)=O)CCC(OC)[C@@]34C5CC6C(OC)C[C@@](O)(C(CC23)[C@@H]14)C5(O)C6OC (stereo not given in full)	–	inconclusive: 39.8 µM [inhibitor, single point]
COc1cc2c3cc1Oc1c(OC)c(OC)cc4c1C(Cc1cccc(c1)Oc1ccc(c(O)c1)CC3N(C)CC2)N(C)CC4 (stereo not given)	–	inconclusive: 35.5 µM [activator, partial curve]
Cc1ccc(/C=C2\C(=O)NC(=S)N(c3ccc(F)cc3)C2=O)s1	inactive: 0.685%	–
CC[n+]1c(/C=C/C=C/c2ccc(N(C)C)cc2)sc2ccccc21	inactive: 4.61%	–
CC/C(=N\NC(=O)c1ccccc1O)c1c(O)n(Cc2ccccc2)c(=O)[nH]c1=O	–	inconclusive: 0.891 µM [inhibitor, full curve, poor fit]
COc1ccc2c3c([nH]c2c1)C(C)=NCC3	–	inconclusive: 11.2 µM [activator, full curve, poor fit] and inconclusive: 35.5 µM [activator, partial curve]
O=C(CN1CCCCC1)c1cccc(Br)c1	–	inconclusive: 35.5 µM [inhibitor, single point]
C[C@@H](N)Cc1cnc[nH]1	–	inconclusive: 63.1 µM [activator, partial curve, poor fit]
Fc1ccccc1CCNCc1cccc(Cl)c1Cl	–	inconclusive: 1.12 µM [inhibitor, full curve, poor fit]
COCCN1Cc2cc(=O)n3c([nH]c4ccccc43)c2C1=N	–	inconclusive: 3.98 µM [activator, partial curve, poor fit]
COCC(C)OC(=O)c1c(N)n(Cc2ccco2)c2nc3ccccc3nc12 (stereo not given)	–	inconclusive: 31.6 µM [activator, partial curve]
COCCCn1c(N)c(C(=O)OC(C)COC)c2nc3ccccc3nc21 (stereo not given)	–	inconclusive: 35.5 µM [activator, partial curve]
Nc1nc2[nH]c(=O)cnc2c(=O)[nH]1	–	inconclusive: 25.1 µM [activator, single point]
Nc1c(C(=O)NC2CCCC2)c2nc3ccccc3nc2n1CC1CCCO1 (stereo not given)	–	inconclusive: 28.2 µM [activator, partial curve]
CC1CN=C(Nc2ccccc2)S1 (stereo not given)	–	inconclusive: 0.224 µM [activator, full curve, poor fit]
O=c1ccc2cc(O[C@H]3OC(CO)C(O)C(O)C3O)c(O)cc2o1 (stereo not given in full)	–	inconclusive: 35.5 µM [activator, partial curve]

SMILES	activity change, negative = inhibition	Potency
COP(=O)(OC)c1nc(-c2cccc3ccccc23)oc1N1CCCCC1	–	inconclusive: 35.5 µM [activator, partial curve]
COc1ccc(-c2cc(C(F)(F)F)n3nc(C(=O)N4CCC5(CC4)OCCO5)cc3n2)cc1OC	inactive: 1.08%	–
CC(COc1ccccc1)N(CCCl)Cc1ccccc1 (stereo not given)	–	inconclusive: 11.2 µM [inhibitor, full curve, poor fit]
COc1ccc(Cc2nccc3cc(OC)c(OC)cc23)cc1OC	–	inconclusive: 3.98 µM [inhibitor, full curve]
O=c1[nH]c(=O)n(CCC2=CCCCC2)c(O)c1/C=N/Nc1cccc2ccccc12	–	inconclusive: 50.1 µM [activator, single point]
COc1ccc(Cn2c(N)c(C(=O)NCc3ccco3)c3nc4ccccc4nc32)cc1OC	–	inconclusive: 35.5 µM [activator, partial curve]
CC(=O)Nc1ccc(OC(=O)c2ccccc2N)cc1	–	inconclusive: 11.2 µM [activator, partial curve]
CCCCCCn1c(N)c(C(=O)NCCN2CCOCC2)c2nc3ccccc3nc21	inactive: 24.6%	–
OC(CCNCCc1c[nH]c2ccccc12)C(F)(F)Cl (stereo not given)	–	inconclusive: 39.8 µM [inhibitor, single point]
COCCCn1c(N)c(C(=O)NCc2ccco2)c2nc3ccccc3nc21	–	inconclusive: 50.1 µM [activator, single point]
Cc1coc2c1CCC(C)C2 (stereo not given)	inactive: 12%	–
CCCCn1c(NS(=O)(=O)c2ccc(C)cc2)c(C(=O)OCC)c2nc3ccccc3nc21	–	inconclusive: 31.6 µM [activator, single point]
O=C(Nc1ccc(OC(=O)N2CCCC2)cc1)N1CCOCC1	inactive: -2.68%	–
COc1ccc(CNc2oc(-c3cccc4ccccc34)nc2P(=O)(OC)OC)cc1	–	inconclusive: 39.8 µM [activator, partial curve]
CC1(C)C[C@H]2C=C(C=O)[C@]3(C=O)C[C@]3(C)[C@H]2C1	inactive: -12.9%	–
COc1ccc2c(c1O)-c1cccc3c1C(C2)N(C)CC3 (stereo not given)	–	inconclusive: 39.8 µM [activator, single point]
C=C1C(=O)O[C@@H]2C[C@@H](C)[C@@H]3C=CC(=O)[C@@]3(C)[C@@H](O)[C@H]12	–	inactive and inconclusive: 39.8 µM [activator, partial curve]
Cc1ccc2nc(-c3ccncc3)cc(C(=O)N3CCC4(CC3)OCCO4)c2c1	–	inconclusive: 39.8 µM [inhibitor, single point]
O=C1NC(=S)N(C2CC2)C(=O)/C1=C/c1ccc2c(c1)CCN2CCCCl	inactive: 0.619%	–
O=C(O)c1cccc2nc3ccccc3nc12	inactive: -8.74%	–
CC[C@]1(O)C(=O)OCc2c1cc1n(c2=O)Cc2cc3ccccc3nc2-1	–	inconclusive: 3.55 µM [activator, full curve]

Source: PubChem BioAssay AID2107 (National Center for Advancing Translational Sciences (NCATS), 2009)
